Measured values as given in PubChem BioAssay AID588591 (National Center for Advancing Translational Sciences (NCATS), 2011).
Hit rate of the full screen: of about 390,000 compounds, about 4,700 (1.2%) were called active. The shares of active, inactive and inconclusive entries below differ from those in the screen. Calls come from the whole dose curve; as a rule, active = well fitted inhibition curve with a large enough effect; inconclusive = small, poorly fitted or top-dose-only effect, or another doubt; inactive = no such curve, though single readings can be large or run the other way. Where the call is inconclusive, the potency comes from a doubtful curve fit.

biological target: DNA polymerase eta (Homo sapiens) (UniProt Q9Y253); test: qHTS for Inhibitors of Polymerase Eta; details: recombinant Pol eta, fluorescent DNA replication assay; series mostly up to 114 µM
From the text: The Y-family of DNA polymerases, such as Pol eta, are specifically involved in DNA repair. Pol eta copies undamaged DNA with a lower fidelity than other DNA-directed polymerases. However, it accurately replicates UV-damaged DNA; when thymine dimers are present, this polymerase inserts the complementary nucleotides in the newly synthesized DNA, thereby bypassing the lesion and suppressing the mutagenic effect of UV-induced DNA damage. […] Thus, while pol eta's (and most likely iota's) normal function is to protect humans against the deleterious consequences of DNA damage, under certain conditions they can have deleterious effects on human health. As a consequence, we propose to utilize a high throughput replication assay to identify small molecule inhibitors of pol eta. In a collaboration between the National Institute of Child Health & Human Development (NICHD) and NIH Chemical Genomics Center, a high-throughput, fluorescent screen was developed to screen the NIH Molecular Libraries Small Molecule Repository (MLSMR). This screen is used to identify inhibitors of pol eta. NIH Chemical Genomics Center [NCGC] NIH Molecular Libraries Probe Centers Network [MLPCN] MLPCN Grant: MH090825 Assay Submitter (PI): Roger Woodgate, NICHD)
Three microliters of reagents (buffer in column 3 and 4 as negative control and 10 nM Pol eta in columns 1, 2, and 5-48) were dispensed into a 1,536-well black solid-bottomed plate. Compounds (23 nL) were transferred via Kalypsys pin tool equipped with 1536-pin array. The plates were then incubated for 15 min at room temperature, and 1 µL substrate (50 nM final concentration) was added to start the reaction and kinetically read twice at 0 min and 10 min on the Viewlux reader
Potency is the fitted concentration of half-maximal effect; tags give direction and shape of the fitted curve.

Sequence of UniProt Q9Y253 (Q9Y253 whole entry, looked up): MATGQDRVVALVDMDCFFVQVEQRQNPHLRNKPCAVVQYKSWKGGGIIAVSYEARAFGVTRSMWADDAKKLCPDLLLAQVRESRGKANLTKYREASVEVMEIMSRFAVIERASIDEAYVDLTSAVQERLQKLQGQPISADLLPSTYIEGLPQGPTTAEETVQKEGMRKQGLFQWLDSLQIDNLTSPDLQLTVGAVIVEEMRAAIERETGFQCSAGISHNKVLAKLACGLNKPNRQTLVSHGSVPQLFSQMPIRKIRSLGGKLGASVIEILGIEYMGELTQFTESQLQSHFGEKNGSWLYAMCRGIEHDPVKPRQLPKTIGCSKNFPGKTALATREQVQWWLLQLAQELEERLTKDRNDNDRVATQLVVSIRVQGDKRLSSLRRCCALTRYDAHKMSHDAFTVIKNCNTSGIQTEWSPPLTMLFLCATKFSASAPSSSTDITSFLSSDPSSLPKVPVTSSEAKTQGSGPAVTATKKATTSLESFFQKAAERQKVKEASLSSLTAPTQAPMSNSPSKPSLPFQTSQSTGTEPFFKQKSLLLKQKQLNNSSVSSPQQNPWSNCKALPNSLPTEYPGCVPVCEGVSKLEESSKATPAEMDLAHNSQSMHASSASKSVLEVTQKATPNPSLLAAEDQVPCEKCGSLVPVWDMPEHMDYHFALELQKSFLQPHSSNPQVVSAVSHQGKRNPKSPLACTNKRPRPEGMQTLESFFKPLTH

Row | Compound | Potency
1 | COc1nnc(-c2ccc(C(=O)N3C[C@@H]4C[C@H](C3)c3cccc(=O)n3C4)cc2)c2ccccc12 | inconclusive: 12.6 µM [inhibitor, partial curve, poor fit]
2 | Cc1ccc(C(=O)N/C(=C/c2ccco2)C(=O)Nc2cccc(C(=O)O)c2)cc1 | active: 22.4 µM
3 | N[C@@H](C(=O)N[C@@H]1C(=O)N2C(C(=O)O)=C(Cl)CS[C@H]12)c1ccccc1 | inconclusive: 44.7 µM [inhibitor, partial curve, poor fit]
4 | C=C1c2cccc(O)c2C(=O)C2C(=O)[C@]3(O)C(=O)C(C(N)=O)C(=O)[C@@H](N(C)C)[C@@H]3[C@@H](O)[C@H]12 (stereo not given in full) | inconclusive: 35.5 µM [inhibitor, full curve, poor fit]
5 | COC(=O)CSc1nnc(NC(=O)C2CC(=O)N(c3ccc(F)cc3)C2)s1 (stereo not given) | inconclusive: 15.8 µM [inhibitor, full curve, poor fit]
6 | CC(C)(C)c1ccc(C(=O)NCC(c2ccc(Cl)cc2)N2CCOCC2)cc1 (stereo not given) | inconclusive: 89.1 µM [inhibitor, partial curve, poor fit]
7 | CC(=O)OC[C@]1(OC(C)=O)C[C@@]23CC[C@H]4[C@@](C)(CCC[C@@]4(C)C(=O)O)[C@@H]2CC[C@@H]1C3 | inconclusive: 35.5 µM [inhibitor, partial curve, poor fit]
8 | C/C(N)=C(/C#N)C(=O)CN1C(=O)NC(Cc2c[nH]c3ccccc23)C1=O (stereo not given) | active: 31.6 µM
9 | Cc1cccc(NC(=O)CCS(=O)(=O)c2cc(Br)cc3c2N(C(=O)C2CC2)CC3)c1 | inactive
10 | CCn1c(SCC(=O)Nc2ccc3c(c2)OCCO3)nnc1-c1cccnc1 | inactive
11 | Cc1cccn2c(=O)c3cc(C(=O)NCc4ccco4)c(=N)n(CCOCCO)c3nc12 | inconclusive: 28.2 µM [inhibitor, partial curve, poor fit]
12 | Cc1cc(-c2sccc2Br)nc(-n2cccc2)n1 | inactive
13 | Cc1ccc(-c2nnc(N(C)C(=O)C3CCCO3)s2)cn1 (stereo not given) | inconclusive: 28.2 µM [inhibitor, partial curve, poor fit]
14 | CC(=O)Nc1ccccc1-c1nc2ccccc2n(CC(=O)Nc2cccc(C(F)(F)F)c2)c1=O | inactive
15 | CC(C)S(=O)(=O)C1=NSC2=NC(=O)/C(=C\c3ccc(OC(=O)c4ccco4)cc3)C(=N)N21 | inconclusive: 44.7 µM [inhibitor, partial curve]
16 | CCCc1ccc(OCc2ccc(C(=O)O)o2)c(OC)c1 | inconclusive: 28.2 µM [inhibitor, partial curve, poor fit]
17 | O=C(N/N=C\c1cn[nH]c1-c1ccccc1)c1cccs1 | inconclusive: 31.6 µM [inhibitor, full curve]
18 | N#Cc1cc(C(=O)c2cc(F)ccc2O)cn(Cc2ccccc2)c1=O | inconclusive: 89.1 µM [inhibitor, single point]
19 | COc1ccc(N2CCN(S(=O)(=O)c3ccc(-c4ccno4)cc3OC)CC2)cc1 | inconclusive: 79.4 µM [inhibitor, partial curve, poor fit]
20 | O=C1CCCN1C(=O)CSc1ncnc2sccc12 | active: 20 µM
21 | O=C(CC(c1ccccc1)c1cc(Br)ccc1O)NCc1ccco1 (stereo not given) | inconclusive: 35.5 µM [inhibitor, partial curve, poor fit]
22 | CC(=O)N1CCc2cc(Br)cc(S(=O)(=O)N3CCC(C(=O)Nc4ccc(C(C)C)cc4)CC3)c21 | inactive

Row | Compound | Potency
23 | CCN(c1ccccc1)S(=O)(=O)c1ccc(Cl)c(C(=O)N(CC2CCCO2)C2CCS(=O)(=O)C2)c1 (stereo not given) | inactive
24 | CCCCOC(=O)Cn1c2ccc(OC)cc2c2nc3ccccc3nc21 | inconclusive: 8.91 µM [inhibitor, full curve]
25 | COc1ccc(NC(=O)CCc2nnc3ccc(NCc4ccco4)nn23)cc1OC | inconclusive: 50.1 µM [inhibitor, partial curve]
26 | COc1ccc(/C=C2\SC(=S)N(CCC(=O)Nc3cccc(C(=O)O)c3)C2=O)cc1OC | inconclusive: 50.1 µM [inhibitor, partial curve, poor fit]
27 | O=C(COC(=O)c1c2c(nc3ccccc13)/C(=C\c1ccco1)CC2)NC1CCCC1 | active: 3.55 µM
28 | CCOc1ccc(CCNC(=O)CSc2nnnn2-c2ccccc2)cc1OCC | inactive
29 | COc1ccc(Br)cc1[C@@H]1Nc2ccc(C(=O)O)cc2[C@@H]2C=CC[C@@H]21 | active: 79.4 µM
30 | CCOC(=O)[C@@H]1CCNC[C@@H]1c1ccccc1 | inconclusive: 79.4 µM [inhibitor, partial curve, poor fit]
31 | CCCc1c(O)nc(SCC(=O)NCCc2ccc(OC)c(OC)c2)[nH]c1=O | inconclusive: 35.5 µM [inhibitor, partial curve, poor fit]
32 | CCCCN1C(=O)c2ccc(C(=O)Nc3ccc(S(=O)(=O)N(C)C)cc3)cc2C1=O | inconclusive: 39.8 µM [inhibitor, partial curve, poor fit]
33 | COc1ccc(-c2nnc(SCC(=O)c3cc(C)n(Cc4cccs4)c3C)o2)cc1 | inconclusive: 17.8 µM [inhibitor, single point]
34 | COc1ccc(OC)c(Nc2sc(C(=O)c3ccccc3)c(N)c2S(=O)(=O)c2ccccc2)c1 | inactive
35 | O=C(O)c1ccc(N/N=C/c2cn(Cc3ccc(F)cc3)c3ccccc23)cc1 | inconclusive: 89.1 µM [inhibitor, single point]
36 | Cc1cccc(N2CCN(S(=O)(=O)c3cc(C(=O)Nc4ccc(Oc5ccccc5)cc4)ccc3F)CC2)c1C | inactive
37 | Cc1nnc(NC(=O)C2COc3ccccc3O2)s1 (stereo not given) | inconclusive: 28.2 µM [inhibitor, single point]
38 | CC(C)CC1=NN2C(=N)/C(=C\c3coc4ccccc4c3=O)C(=O)N=C2S1 | active: 20 µM
39 | CCc1ccc(CNC(=O)c2cnc3sc(N4CCOCC4)nn3c2=O)cc1 | inactive
40 | Cc1cnc(C(=O)OCC(=O)Nc2ncc(Cl)cc2Cl)cn1 | active: 50.1 µM
41 | Cc1c(CCOC(=O)c2ccccc2)sc[n+]1Cc1ccccc1 | inconclusive: 39.8 µM [inhibitor, partial curve, poor fit]
42 | N#Cc1nc(-c2ccc(COc3ccccc3)o2)oc1N1CCN(c2ccccc2)CC1 | inconclusive: 100 µM [inhibitor, partial curve, poor fit]
43 | Cc1nc2cccnc2n1-c1cccc(C(=O)NCCN(C)C)c1 | inactive
44 | CC(=O)/C(=N\Nc1cccc(Cl)c1)Sc1nnc(-c2ccccc2)n1-c1ccccc1 | inconclusive: 35.5 µM [inhibitor, single point]

Row | Compound | Potency
45 | CN1CCN(C(=O)CSc2nc(-c3cccs3)ccc2C#N)CC1 | inconclusive: 22.4 µM [inhibitor, single point]
46 | O=C(CN(c1ccc(F)cc1)S(=O)(=O)c1ccc2c(c1)OCCO2)NCc1cccnc1 | inconclusive: 79.4 µM [inhibitor, partial curve, poor fit]
47 | COc1ccc(C2C=C(c3ccc(Cl)cc3)Nc3nc(-c4ccc(Cl)cc4)nn32)cc1 (stereo not given) | inactive
48 | O=C(CSc1n[nH]c(-c2ccc(F)cc2)n1)NCc1ccccc1Cl | inactive
49 | Cc1ccc(NC(=O)c2oc3ccc4c(c3c2C)C(=O)CC(C)(C)O4)c(C)c1 | inactive
50 | O=C1NC(c2ccccc2Cl)=N/C1=C/c1ccco1 | inactive
51 | COc1ccc2c(-c3ccccc3)cc(N3CCOCC3)nc2c1 | inactive
52 | CCOC(=O)c1cnn(-c2ccc(C(=O)Nc3ccc(C(C)=O)cc3)cc2)c1N | inactive
53 | CCOc1ccc2c(c1)c(=O)c(S(=O)(=O)c1ccc(F)cc1)cn2CC(=O)Nc1ccccc1C | inconclusive: 89.1 µM [inhibitor, partial curve, poor fit]
54 | Cc1cc(NCCCCCCCNc2cc(C)nc3cc([N+](=O)[O-])ccc23)c2ccc([N+](=O)[O-])cc2n1 | inconclusive: 50.1 µM [inhibitor, partial curve, poor fit]
55 | COC(=O)Cn1c(=NC(=O)c2cc(OC)cc(OC)c2)sc2cc(OC)ccc21 | inconclusive: 50.1 µM [inhibitor, partial curve, poor fit]
56 | COc1cccc(Cc2nc3ccccc3nc2SCC(=O)N2CCCc3ccccc32)c1 | inactive
57 | Cc1ccccc1-c1cc(-c2ccccc2O)n[nH]1 | inconclusive: 56.2 µM [inhibitor, partial curve, poor fit]
58 | CSc1ccc(NC(=O)CSc2nc3[nH]c(=O)cc(O)c3s2)cc1 | active: 39.8 µM
59 | CCCCn1c(N)c(N(CC(C)C)C(=O)c2oc3c(Cl)cccc3c2C)c(=O)[nH]c1=O | inconclusive: 100 µM [inhibitor, partial curve, poor fit]
60 | O=C(O)C1=NN(c2cc(Cl)c(S(=O)(=O)O)cc2Cl)C(=O)C1 | active: 22.4 µM
61 | CSCCC(NS(=O)(=O)c1ccc(C)c(C(=O)O)c1)C(=O)O (stereo not given) | inconclusive: 79.4 µM [inhibitor, partial curve]
62 | O=C(Nc1ccc(F)cc1)c1cc(S(=O)(=O)Nc2ccc(F)cc2)cs1 | inconclusive: 56.2 µM [inhibitor, partial curve, poor fit]
63 | COc1ccccc1C1CC(c2ccccc2)=NN1S(=O)(=O)c1ccccc1 (stereo not given) | inactive
64 | CCOC(=O)c1c(NC(=O)CSc2nnnn2C)sc(C)c1-c1ccc(C)cc1 | inconclusive: 44.7 µM [inhibitor, partial curve, poor fit]
65 | Cc1nn(Cc2ccccc2Cl)c(C)c1NC(=O)Cn1nc([N+](=O)[O-])c(Cl)c1C | inconclusive: 89.1 µM [inhibitor, partial curve, poor fit]
